Source: article PMC4336329 (PLoS ONE, 2015)
Screen size: about 310,000 compounds; about 14,000 (4.5%) showed an effect of 50% or more. Effects have a minus sign here. Some of the results follow.

molecular target: human ether-à-go-go-related gene (hERG) potassium channel (human, UniProt Q12809); test: primary screen, population patch clamp on CHO cells stably expressing hERG
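Further: peak tail current of the secondary pulse compared with the same well before compound.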

Chain of human ether-à-go-go-related gene (hERG) potassium channel (Q12809 whole entry, looked up): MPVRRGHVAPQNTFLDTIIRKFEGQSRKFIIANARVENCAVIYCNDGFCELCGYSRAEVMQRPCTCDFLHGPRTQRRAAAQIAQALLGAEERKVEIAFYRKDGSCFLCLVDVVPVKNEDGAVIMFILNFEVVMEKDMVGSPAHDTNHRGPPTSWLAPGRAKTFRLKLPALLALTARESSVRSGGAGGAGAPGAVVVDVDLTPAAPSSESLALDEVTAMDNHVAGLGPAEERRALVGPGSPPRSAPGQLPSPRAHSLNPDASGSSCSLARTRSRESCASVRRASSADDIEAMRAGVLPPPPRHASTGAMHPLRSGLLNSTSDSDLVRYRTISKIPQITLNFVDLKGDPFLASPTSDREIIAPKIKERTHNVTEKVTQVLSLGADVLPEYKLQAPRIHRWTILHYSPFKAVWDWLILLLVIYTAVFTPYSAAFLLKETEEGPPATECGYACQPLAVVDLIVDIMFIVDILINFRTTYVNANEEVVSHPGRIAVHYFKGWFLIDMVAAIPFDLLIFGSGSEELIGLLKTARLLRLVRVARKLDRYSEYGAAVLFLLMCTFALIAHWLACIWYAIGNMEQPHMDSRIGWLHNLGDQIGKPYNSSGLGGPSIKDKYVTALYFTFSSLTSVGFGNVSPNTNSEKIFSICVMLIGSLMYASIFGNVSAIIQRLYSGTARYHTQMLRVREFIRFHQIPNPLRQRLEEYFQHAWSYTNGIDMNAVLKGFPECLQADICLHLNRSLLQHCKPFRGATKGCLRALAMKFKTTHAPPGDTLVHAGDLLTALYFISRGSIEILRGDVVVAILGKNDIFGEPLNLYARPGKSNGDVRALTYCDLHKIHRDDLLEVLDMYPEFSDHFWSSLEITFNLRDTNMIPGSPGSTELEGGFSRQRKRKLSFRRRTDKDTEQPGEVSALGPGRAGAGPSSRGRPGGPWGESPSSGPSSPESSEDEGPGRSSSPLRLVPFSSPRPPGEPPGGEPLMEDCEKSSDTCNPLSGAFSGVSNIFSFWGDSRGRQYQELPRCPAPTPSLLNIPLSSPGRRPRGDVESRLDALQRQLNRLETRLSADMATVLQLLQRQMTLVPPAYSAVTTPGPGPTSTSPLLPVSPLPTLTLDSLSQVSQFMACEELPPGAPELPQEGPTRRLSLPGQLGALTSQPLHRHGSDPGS

Structure (SMILES)	hERG current change (%, negative = inhibition) at 10uM [%]
Cc1ccc(-c2cc(C(=O)Nc3sc4c(c3C(=O)NCc3ccco3)CCC4)[nH]n2)c(O)c1	-0.984
O=C(c1ccc(C(F)(F)F)cc1)C1CCCN(C2CCSCC2)C1 (centres unmarked)	-71.2
COc1cc(/C=C/C(=O)c2ccc(C)cc2)ccc1OCC#N	-7.24
O=C(CCCCCCCCCCC(=O)NCc1cccnc1)NCc1cccnc1	-9.76
COc1cccc(NC(=O)CSc2nnc3c(n2)[nH]c2ccc(C)cc23)c1	8.36
CC(C)NS(=O)(=O)c1ccc(OCC(=O)N2CCN(Cc3ccc4c(c3)OCO4)CC2)c(Cl)c1	-41.4
Cn1c(NCCc2ccccc2)cc(=O)n(C)c1=O	2.95
C/C(=N\NC(=S)Nc1c(C)cccc1C)c1cc2ccccc2o1	15.1
COc1cc(OC)c(OC)cc1CN1CCN(Cc2cccn2C)CC1.O=C(O)C(=O)O	0.393
Cc1sc2ncn(-n3c(C)ccc3C)c(=O)c2c1C	-1.61
COc1ccc(NC(=O)Cn2c(-c3ccccc3)cn(-c3ccc(C)cc3)c2=O)cc1	7.99
CCOc1ccccc1NC(=O)Cn1nnc(C(=O)NCCc2ccc(OC)c(OC)c2)c1N	3.08
On1onc2c3cc(-c4ccccc4)nc3ccc21	-3.53
O=C(N/N=C/c1ccc2c(c1)OCO2)C(=O)Nc1cccc(Cl)c1	21.1
COc1cccc(Sc2ccccc2/C=N/NC(N)=O)c1	8.91
CCCCC(=O)Nc1ccc(S(=O)(=O)N2CCCCC2c2cccnc2)cc1 (centres unmarked)	-29
CCOC(=O)c1c(C)[nH]c(C(=O)OCC(=O)N2c3ccccc3CC2C)c1C (centres unmarked)	13
Cc1nc2cc3nc(C)sc3cc2s1	2
O=C(Nc1nnc(SCc2ccc(Cl)cc2Cl)s1)C1COc2ccccc2O1 (centres unmarked)	3.59
CCC(C)OC(=O)C1=C(C)NC(=O)NC1c1ccc(F)cc1 (centres unmarked)	1.85
COc1ccc2cc3cc(C(=O)NCC4COc5ccccc5O4)oc3nc2c1 (centres unmarked)	6.49
O=C(NCCC1CCCCN1S(=O)(=O)c1cccs1)C(=O)NCc1ccccc1 (centres unmarked)	6.03

Structure (SMILES)	hERG current change (%, negative = inhibition) at 10uM [%]
C#Cc1ccc([C@H]2C=C(C(=O)NC3CC3)O[C@@H](OCC)[C@@H]2CCCO)cc1	-5.37
COc1ccc(S(=O)(=O)N2CCCC2)cc1C(=O)N1CCOCC1	1.24
O=C(NC1CCSc2ccccc21)c1cc([N+](=O)[O-])ccc1N1CCOCC1 (centres unmarked)	-57.8
CCNc1ccc(C(=O)OCC(=O)NCc2ccc(C)cc2)cc1[N+](=O)[O-]	20.9
CC(C)N(c1ccccc1)c1ccc(NC(=S)NCCN(C)C)cc1	-1.95
CN(Cc1ccccc1)C(=O)C(C(=O)c1ccc(F)cc1)n1cc(Cl)ccc1=O (centres unmarked)	-8.83
Cc1c(N/C=C(\Cl)C(=O)C(F)(F)F)c(=O)n(-c2ccccc2)n1C	4.21
CCn1c(N2CCN(S(=O)(=O)c3ccccc3C(F)(F)F)CC2)nc2ccccc21.Cl	-39.6
O=C(NC(=S)Nc1ccc2c(c1)OCCO2)c1ccccc1F	10.7
COc1cccc2cc(C(C)=O)oc12	15.5
CCC1OC2(C)OC(=N)C1(C#N)C(C#N)(C#N)C2c1ccccc1 (centres unmarked)	17.9
N/C(=N\OC(=O)c1cc(Br)ccc1Cl)c1ccccn1	13.1
O=C1CCCN1CCCNC(=S)Nc1ccc(Cl)cc1Cl	-65.5
N=c1c(C(=O)NCCN2CCOCC2)cc2c(=O)n3ccccc3nc2n1Cc1ccc(F)cc1	-76.5
Cc1ccc(-n2nc(-c3ccco3)cc2C(=O)NCc2cccnc2)cc1	-38.6
CC(C)Sc1nc(N)c2c3c(sc2n1)CN(C)CC3	-34
Cc1ccc(C(=O)NC2CCN(S(=O)(=O)c3ccccc3F)CC2)cc1	22
CC(=O)Nc1ccccc1C(=O)OCC(=O)c1ccc2ccccc2c1	0.264
O=C(c1ccccc1)N1CCN(Cc2ccc3c(c2)OCO3)CC1	11.5
CCN(C(=O)CCN1C(=O)S/C(=C\c2ccccc2)C1=O)C1CCS(=O)(=O)C1 (centres unmarked)	-15.9
Cc1ccc(S(=O)(=O)N(CCC#N)CCN2CCCC2)cc1	-21.9
CC(C)[C@H](NC(=O)C1CC(=O)N(c2ccc3c(c2)OCCO3)C1)C(=O)NC1CCCC1 (some centres unmarked)	15.3

Structure (SMILES)	hERG current change (%, negative = inhibition) at 10uM [%]
N/C(=N\OC(=O)c1cccs1)c1ccc(Cl)cc1	6.63
CCNc1ccc(C(=O)OCC)cc1NC(=O)c1cccc(S(=O)(=O)N(C)c2ccccc2)c1	-6.49
Cc1cc(C)n(CC(O)COc2cccc(OCC(O)Cn3nc(C)cc3C)c2)n1 (centres unmarked)	4.59
CC(C)c1nc(SCC(=O)N2CC(=O)Nc3ccccc32)c2ccccc2n1	39.9
CN(C)c1ccc(C(C(=O)NCC2CCCO2)N(Cc2ccco2)C(=O)c2snc(C(N)=O)c2N)cc1 (centres unmarked)	12.3
O=C(O)CCC(=O)NCc1ccc(C(=O)O)cc1	0.97
Cc1ccc(COn2c(-c3ccc(Cl)cc3)nc3ccc([N+](=O)[O-])cc32)cc1	3.22
CCOc1ccc(CCNC(=O)COC(=O)c2cc(S(=O)(=O)N3CCOCC3)ccc2F)cc1OCC	-12.6
CCCCN(C)CCNC(=O)CCNC(=O)Cn1ccc2ccccc2c1=O	27
CC(C)C(NC(=O)c1ccc(F)cc1)C(=O)N1CCN(C(=O)c2ccco2)CC1 (centres unmarked)	-17
CN(C)c1cccc(C(=O)N2CCCC(C(=O)c3cc(F)ccc3F)C2)c1 (centres unmarked)	0.21
COc1cc(/C=C2\SC(N3CCC(C)CC3)=NC2=O)ccc1O	-5.99
Nc1nnc(SCC(=O)Nc2ccc3nc(SCC(=O)Nc4ccccc4)sc3c2)s1	-4.18
COc1ccc(CNC(=O)COc2ccc(S(=O)(=O)N3CCCCC3)cc2)cc1	6.5
C=CCNCc1cc(=O)n2c(-c3ccccc3)csc2n1.O=C(O)C(=O)O	11.6
CC1=C(C(=O)O)N2C(=O)C(NC(=O)c3ccccc3Cl)C2SC1 (centres unmarked)	12.8
CCC(=O)NC(=S)Nc1cccc(C(C)=O)c1	-2.17
CCN(CC)c1ccc(S(=O)(=O)N2CCCCC2)cc1NC(=O)C1CSC2(C)CCC(=O)N12 (centres unmarked)	-32.1
O=C(CCc1nnc2ccc(N3CCC4(CC3)OCCO4)nn12)NCc1ccccc1Cl	16.5
CC(C)OCCCNC(=O)Cn1ccc2cc(S(=O)(=O)N3CCCCC3)ccc21	-4.17
CCn1cc(CNC(=O)NC2CCCCC2)c(C)n1	8.03
Cc1ccc(S(=O)(=O)N(CC(=O)Nc2ccc(C(N)=O)cc2)C(=O)N2CCN(C)CC2)cc1	-0.0686

Structure (SMILES)	hERG current change (%, negative = inhibition) at 10uM [%]
N#CC12C(N)=NC3(OCCO3)C1(C#N)C1=C(CCC1)NC2c1ccccc1 (centres unmarked)	12.4
COc1cccc2sc3ccc(C#CC4(N)CCCCC4)cc3c(=O)c12	9.26
CCCOC(=O)c1[nH]c2c(c1C)C(=O)CC(c1cccs1)C2 (centres unmarked)	11.3
CN1CCS/C1=C/C=C1\SC(=S)N(CC(=O)O)C1=O	5.2
CCN1C(=O)/C(=C/C=C2\N(CC)c3cc(S(=O)(=O)N(C)C)ccc3N2c2ccccc2)SC1=S	0.17
CCSc1nc(C(F)(F)F)cc(=O)n1-c1ccccc1	-3.32
Cc1ccc(N2CC(C(=O)N3CCC(C(=O)Nc4nnc(C(C)C)s4)CC3)CC2=O)cc1 (centres unmarked)	10.7
O=C(COc1ccccc1[N+](=O)[O-])Nc1ccc(CN2CCOCC2)cc1	-28.2
COc1cccc(C(=O)N2CCN(Cc3cc(Br)ccc3OC)CC2)c1.O=C(O)C(=O)O	-51.8
COc1cc2cc(CCOC(=O)N3CCCCC3)oc(=O)c2cc1OC	5.38
COCCCNC(=O)CCCOc1ccccc1	-5.81
O=C(CN1C(=O)NC2(CCCCCC2)C1=O)NCc1ccco1	23.9
COc1cc(CNCCc2c[nH]c3ccccc23)cc(OC)c1.O=C(O)C(=O)O	-43.9
COc1ccc(CCN=C(N)NS(=O)(=O)c2ccc(C)cc2)cc1OC	6.05
CCN1CC2=C(OC(N)=C(C#N)C2c2cccs2)/C(=C\c2cccs2)C1 (centres unmarked)	-35
COc1ccc(NC(=O)c2c(OC)cccc2OC)c(OC)c1	9.92
CC1CCc2c(C(=O)NCCN3CCOCC3)csc2C1 (centres unmarked)	8.2
CC(C)CC(=O)Nc1nnc(-c2ccco2)s1	-11.5
COc1ccc(CNC(=O)c2ccc(CN3CCOCC3)cc2)cc1	6.28
COc1ccc(Br)cc1CNC(=O)C1CCCN(c2nc3ccccc3o2)C1 (centres unmarked)	-17.9
